About 2,200 (0.71%) of roughly 310,000 compounds showed an effect of 50% or more. Effects have a minus sign here. This is one part of the list.

For this assay, the target named is human ether-à-go-go-related gene (hERG) potassium channel (human, UniProt Q12809). The assay can be described thus: primary screen, population patch clamp on CHO cells stably expressing hERG.
Sequence of human ether-à-go-go-related gene (hERG) potassium channel (Q12809 whole entry, looked up): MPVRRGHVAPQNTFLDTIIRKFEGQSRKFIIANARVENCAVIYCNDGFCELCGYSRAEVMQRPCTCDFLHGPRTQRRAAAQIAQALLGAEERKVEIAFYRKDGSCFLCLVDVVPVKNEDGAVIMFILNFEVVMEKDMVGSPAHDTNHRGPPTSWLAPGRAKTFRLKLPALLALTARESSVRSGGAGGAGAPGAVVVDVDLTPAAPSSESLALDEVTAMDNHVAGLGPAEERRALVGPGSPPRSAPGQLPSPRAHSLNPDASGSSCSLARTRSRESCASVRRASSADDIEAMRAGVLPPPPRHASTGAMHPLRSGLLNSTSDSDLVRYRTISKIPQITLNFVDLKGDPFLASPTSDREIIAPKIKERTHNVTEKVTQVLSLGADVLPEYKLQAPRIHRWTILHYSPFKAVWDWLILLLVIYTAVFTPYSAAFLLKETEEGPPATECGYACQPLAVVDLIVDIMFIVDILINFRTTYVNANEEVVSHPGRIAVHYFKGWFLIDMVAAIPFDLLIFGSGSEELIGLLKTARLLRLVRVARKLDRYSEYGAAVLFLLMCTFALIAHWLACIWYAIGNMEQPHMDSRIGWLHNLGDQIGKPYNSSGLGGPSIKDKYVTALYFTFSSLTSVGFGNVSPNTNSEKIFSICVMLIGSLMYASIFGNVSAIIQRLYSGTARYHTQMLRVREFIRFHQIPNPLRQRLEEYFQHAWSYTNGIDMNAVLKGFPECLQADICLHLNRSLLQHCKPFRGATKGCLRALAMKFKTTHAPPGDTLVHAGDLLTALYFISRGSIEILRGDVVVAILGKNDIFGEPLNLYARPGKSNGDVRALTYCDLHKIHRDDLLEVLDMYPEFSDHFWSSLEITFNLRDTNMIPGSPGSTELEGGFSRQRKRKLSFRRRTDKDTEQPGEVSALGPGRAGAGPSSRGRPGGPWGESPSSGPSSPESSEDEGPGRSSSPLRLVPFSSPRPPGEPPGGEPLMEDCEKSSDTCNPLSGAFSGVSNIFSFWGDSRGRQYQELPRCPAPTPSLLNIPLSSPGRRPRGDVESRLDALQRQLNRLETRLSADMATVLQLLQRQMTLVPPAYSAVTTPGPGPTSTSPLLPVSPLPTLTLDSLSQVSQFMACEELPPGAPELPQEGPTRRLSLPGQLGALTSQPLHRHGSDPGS
With `O=C1/C(=C/c2cccs2)SC(=S)N1C1CCS(=O)(=O)C1` (centres unmarked), the “hERG current change (%, negative = inhibition) at 1uM” value is 4.85%.

Turning to `COc1ccc(CN2C=C3C(=O)C(C)(OC(=O)CCc4ccccc4)C(=O)C=C3C=C2c2ccc(C#N)cc2)cc1` (centres unmarked), the “hERG current change (%, negative = inhibition) at 1uM” value is recorded as 9.8%.

`CC(CC(=O)O)CC(=O)NNC(=O)c1cccc(Br)c1` (centres unmarked): the “hERG current change (%, negative = inhibition) at 1uM” value is 8.72%.

On to `CCCCC1CCC(C(=O)NCc2ccc3c(c2)OCO3)CC1` (centres unmarked), for which the “hERG current change (%, negative = inhibition) at 1uM” value came out at 5.65%.

Turning to `CCN1CCN(C(=S)NC(C)c2ccccc2)CC1.O=C(O)C(=O)O` (centres unmarked), the “hERG current change (%, negative = inhibition) at 1uM” value was 4.8%.

For `COc1ccc2c(c1)c(CC(=O)Nc1nnc(C3CC3)s1)c(C)n2C(=O)c1ccc(Cl)cc1`, the “hERG current change (%, negative = inhibition) at 1uM” value was 17.8%.

In the case of `CSc1ccc(S(=O)(=O)NCC(=O)OCC(=O)NCc2ccco2)cc1[N+](=O)[O-]`, the “hERG current change (%, negative = inhibition) at 1uM” value is recorded as -8.64%.

With `COc1ccc(C(=O)CSc2nc(C)cc(=O)[nH]2)cc1`, the “hERG current change (%, negative = inhibition) at 1uM” value is reported as 17%.

With `CC[C@@H](C)[C@H](NC(=O)Cc1c(C)c2c(cc(C)c3c(C)c(C)oc32)oc1=O)C(=O)O`, the “hERG current change (%, negative = inhibition) at 1uM” value turned out to be 5.12%.

Turning to `O=C(CN1CCOCC1)Nc1ccc(Cl)c(Cl)c1.O=C(O)C(=O)O`, the “hERG current change (%, negative = inhibition) at 1uM” value is given as 5.44%.

Consider `Cc1cnc(NC(=O)c2ccc(OCC3CCCO3)cc2)s1` (centres unmarked), for which the “hERG current change (%, negative = inhibition) at 1uM” value stood at 14.7%.

As to `O=C(O)C1CCCN(S(=O)(=O)c2ccc(F)cc2)C1` (centres unmarked), the “hERG current change (%, negative = inhibition) at 1uM” value is 0.929%.

`Cc1sc2ncnc(SCC(=O)N(C)C3CCS(=O)(=O)C3)c2c1C` (centres unmarked): the “hERG current change (%, negative = inhibition) at 1uM” value came to 1.14%.

As to `CCN(CC)C(=O)C(=O)c1ccn(-c2c(C)csc2C(=O)OC)c1`, the “hERG current change (%, negative = inhibition) at 1uM” value stood at 7.53%.

As for `N#Cc1ccc(Cn2c(-c3ccc(F)cc3)noc2=O)cc1`, the “hERG current change (%, negative = inhibition) at 1uM” value is listed as 8.42%.

For the compound `Cc1cc([N+](=O)[O-])nn1CCCC(=O)O`, the “hERG current change (%, negative = inhibition) at 1uM” value is listed as 11.2%.

In the case of `O=C(CCc1c[nH]c2ccccc12)NC1CC1`, the “hERG current change (%, negative = inhibition) at 1uM” value is given as 13.5%.

Consider `CC1CCN(S(=O)(=O)c2ccc(NC(=O)C3CC3)cc2)CC1`, for which the “hERG current change (%, negative = inhibition) at 1uM” value is listed as 10.7%.

Consider `CSc1cccc(NC(=O)CCCNC(=O)c2ccc(Cl)cc2)c1`, for which the “hERG current change (%, negative = inhibition) at 1uM” value is given as 10.6%.

As for `Cn1cccc/c1=N\c1cccc[n+]1C.[I-]`, the “hERG current change (%, negative = inhibition) at 1uM” value amounted to 17.6%.

With `COc1ccc(-n2c(SCC(=O)Nc3ccc(C(N)=O)cc3)nc3ccccc3c2=O)cc1OC`, the “hERG current change (%, negative = inhibition) at 1uM” value turned out to be 13.1%.

Take `O=C(CN1C2CCCC1CC(NC(=O)c1ccccc1)C2)Nc1nccs1` (centres unmarked): the “hERG current change (%, negative = inhibition) at 1uM” value is -11.8%.

Regarding `O=Cc1cn(Cc2ccc(F)cc2)c2ccccc12`, the “hERG current change (%, negative = inhibition) at 1uM” value was 14.4%.

In the case of `CCN(CC)S(=O)(=O)c1ccc2oc(Nc3ccc4c(c3)OCCO4)nc2c1`, the “hERG current change (%, negative = inhibition) at 1uM” value was determined as 2.77%.

Consider `Cc1ccc(-n2cccn2)c(CN2CCCC(CNC(=O)c3ccc(F)cc3)C2)c1` (centres unmarked), for which the “hERG current change (%, negative = inhibition) at 1uM” value was -78.9%.

Consider `O=S(=O)(Nc1nc2ccccc2nc1Cl)c1cccc(C(F)(F)F)c1`, for which the “hERG current change (%, negative = inhibition) at 1uM” value is recorded as 10.1%.

With `Cc1csc(NC(=O)c2cc3c(s2)CCCC3)n1`, the “hERG current change (%, negative = inhibition) at 1uM” value was -5.16%.

With `CCOc1ccc(CCNC(=O)c2cc3c(C)nccc3[nH]c2=O)cc1OCC`, the “hERG current change (%, negative = inhibition) at 1uM” value was determined as 3.36%.

As for `CCN(C(=S)Nc1cccnc1)c1cccc2ccccc12`, the “hERG current change (%, negative = inhibition) at 1uM” value was determined as 14.5%.

Take `COc1ccc(-c2nnc(SC(C)C#N)o2)cc1` (centres unmarked): the “hERG current change (%, negative = inhibition) at 1uM” value is -7.28%.

For the compound `COc1ccc(/C=N/Nc2ccc([N+](=O)[O-])cc2)cc1O`, the “hERG current change (%, negative = inhibition) at 1uM” value worked out at 5.91%.

For the compound `COc1ccc(O[C@@H]2O[C@H](COC(C)=O)[C@@H](OC(C)=O)[C@H](OC(C)=O)[C@H]2NC(C)=O)cc1`, the “hERG current change (%, negative = inhibition) at 1uM” value is listed as 2.34%.

With `O=C(COC(=O)CCc1nc2ccccc2c(=O)[nH]1)Nc1ccc2c(c1)OCO2`, the “hERG current change (%, negative = inhibition) at 1uM” value was 8.77%.

`COc1ccc(/C=N/NC(=O)c2cccc(COCC(F)(F)C(F)F)c2)cc1`: the “hERG current change (%, negative = inhibition) at 1uM” value was 0.208%.

Regarding `O=C(c1ccc2c(c1)OCO2)C1CCCN(Cc2ccc3nsnc3c2)C1` (centres unmarked), the “hERG current change (%, negative = inhibition) at 1uM” value was -34.9%.

Regarding `O=C(NCC1COc2ccccc2O1)c1ccc(Cl)c(S(=O)(=O)N2CCCC2)c1` (centres unmarked), the “hERG current change (%, negative = inhibition) at 1uM” value turned out to be 1.75%.

Consider `CCCCN(C(=O)CN1CCOCC1)c1c(N)n(CC(C)C)c(=O)[nH]c1=O`, for which the “hERG current change (%, negative = inhibition) at 1uM” value worked out at 9.94%.

Regarding `Cc1cccc(C)c1NC(=O)C1CCCN1C(=O)Nc1cccc(F)c1` (centres unmarked), the “hERG current change (%, negative = inhibition) at 1uM” value is reported as 0.848%.

For the compound `Cc1ccc2nc(C)c(C)nc2c1N`, the “hERG current change (%, negative = inhibition) at 1uM” value is 4.2%.

As for `Cc1ccc(NC(=S)NCCc2c[nH]c3ccccc23)cc1`, the “hERG current change (%, negative = inhibition) at 1uM” value turned out to be 2.78%.

For `COc1cccc(/C(O)=C/c2nc3ccc(C(=O)NCCc4cccc(C)c4)cc3[nH]c2=O)c1`, the “hERG current change (%, negative = inhibition) at 1uM” value came out at 15.2%.

`COc1ccc(NC(=O)C2CCCN2C(=O)OC(C)(C)C)cc1` (centres unmarked): the “hERG current change (%, negative = inhibition) at 1uM” value turned out to be 12.3%.

As to `COc1ccc(CCN2C(=O)CC(Cc3ccccc3)C2=O)cc1OC` (centres unmarked), the “hERG current change (%, negative = inhibition) at 1uM” value came out at 0.263%.

For `C=CCn1c(NS(=O)(=O)c2ccccc2)c(S(=O)(=O)c2ccc(C)cc2)c2nc3ccccc3nc21`, the “hERG current change (%, negative = inhibition) at 1uM” value came out at 2.37%.

As to `O=C(c1ccco1)N1CCN(C(=O)c2ccc(COc3ccc(Cl)cc3Cl)o2)CC1`, the “hERG current change (%, negative = inhibition) at 1uM” value is recorded as -22.3%.

`C=C(C)C1CC=C(C)/C(=N\NC(=O)CCc2ccccc2)C1` (centres unmarked): the “hERG current change (%, negative = inhibition) at 1uM” value amounted to 13.6%.

With `COC(=O)/C=C/c1ccc2c(c1)S(=O)(=O)N(c1cccc(OC)c1)[C@H]2CC(=O)OC`, the “hERG current change (%, negative = inhibition) at 1uM” value is recorded as 14.1%.

On to `O=C1C(Cl)=C(N2CCOCC2)C(=O)N1c1ccccc1F`, for which the “hERG current change (%, negative = inhibition) at 1uM” value is on record as 15.7%.

Regarding `O=[N+]([O-])c1ccc(Cl)c(/C=N/n2c(COc3ccccc3)n[nH]c2=S)c1`, the “hERG current change (%, negative = inhibition) at 1uM” value turned out to be 8.05%.

Turning to `C=CCOc1c(CNc2ncn[nH]2)cccc1OCC`, the “hERG current change (%, negative = inhibition) at 1uM” value is given as -2.26%.

Regarding `O=C(CCc1ccccc1)c1c(O)cc(O)cc1O`, the “hERG current change (%, negative = inhibition) at 1uM” value is recorded as 11.5%.

In the case of `Br.CC1=C(c2ccccc2)SC2=NCCN21`, the “hERG current change (%, negative = inhibition) at 1uM” value is reported as 6.79%.

Regarding `Cc1nn(C)c2ncc(C(=O)c3ccccc3O)cc12`, the “hERG current change (%, negative = inhibition) at 1uM” value was 13.6%.

In the case of `O=C(NCC1CCCO1)C1CCCCN1S(=O)(=O)c1ccc(F)cc1` (centres unmarked), the “hERG current change (%, negative = inhibition) at 1uM” value was 5.84%.

`Cc1ccnc(SCC(=O)c2ccc([N+](=O)[O-])cc2)n1`: the “hERG current change (%, negative = inhibition) at 1uM” value is reported as -3.06%.

Consider `CCc1nc(N2CCN(S(=O)(=O)c3ccc(Br)cc3)CC2)c2c(C)c(C)sc2n1`, for which the “hERG current change (%, negative = inhibition) at 1uM” value is reported as 1.18%.

These data come from publication PMC4336329 (PLoS ONE, 2015).
